The values below come from ChEMBL document CHEMBL4888484, “Replenishing the malaria drug discovery pipeline: Screening and hit evaluation of the MMV Hit Generation Library 1 (HGL1) against asexual blood stage Plasmodium falciparum ,using a nano luciferase reporter read-out” (2022).

The campaign covered roughly 150,000 compounds. About 540 (0.36%) showed an effect of 50% or more. Some of the results follow.

This test has as its system Plasmodium falciparum. The experiment in a line: Primary screen in NF54 nanoGlo assay, in single point, at 2uM, 72h; a lower Z score goes with more inhibition. It is filed as functional, Erythrocyte. The settings on record: timepoint 72 hour.
Consider `C=CCCO[C@@H](C)C(=O)N1CCCN(C(=O)CCc2ccc(OC)cc2)CC1`, for which the “% Inhibition” value is 1% and the Z score is -0.17.
In the same order, the values of `N#Cc1ccc(N2CCN3C(=O)C(=O)NC[C@H]3C2)nc1` are -3% and 0.44.
Turning to `CCCCn1nc(Cc2ccccc2OC)nc1[C@@H]1CCC(=O)N1`, the “% Inhibition” value is reported as 2% and the Z score is -0.38.
In the same order, the values of `O=C(Nc1ccccc1)N1CCCCCCC1` are 5% and -0.53.
In the same order, the values of `CC(C)(C)N1CC(NC(=O)CCCC2C(=O)Nc3ccccc32)CC1=O` (centres undefined) are 2% and -0.21.
As to `Cc1noc(C)c1S(=O)(=O)N1C[C@H]2CCCC(=O)N[C@H]2C1`, the “% Inhibition” value is listed as 35% and the Z score is -3.96.
The corresponding values for `CC(=O)N1C[C@@H]2C[C@@H](O)CN2C2(CN(Cc3ccccc3F)C2)C1` are -10% and 1.51.
The corresponding values for `Cc1ccc(-c2nnc(CCC(=O)NCC(C)(C)CN(C)C)o2)s1` are -10% and 1.24.
Turning to `CC(C)CC[C@]1(C)NC(=O)N(Cc2nnc(-c3ccc(Br)cc3)o2)C1=O`, the “% Inhibition” value is recorded as -4% and the Z score is listed as 0.53.
`Cc1cc(C)c(NC(=O)CCN2CCC[C@H]2c2nc(-c3ccncc3)no2)c(C)c1`: the “% Inhibition” value amounted to 0% and the Z score stood at 0.02.
The corresponding values for `CCCO[C@H]1CCCN(c2noc(C3CC3)n2)C1` are 0% and 0.07.
The corresponding values for `COCCC(=O)Nc1nn(-c2cccc(F)c2)c2cccc(N3CCOC3=O)c12` are -3% and 0.41.
In the same order, the values of `CCOC(=O)[C@H](NCC(=O)Nc1cccc(N2CCCC2=O)c1)c1cccc2ccccc12` are -18% and 2.06.
For `CC(C)=CCC/C(C)=C/CN1CCc2[nH]cnc2[C@@H]1C(=O)O`, the “% Inhibition” value was -9% and the Z score was 1.83.
The corresponding values for `Cc1cc(CC(=O)N2CCC([C@H](O)c3cccs3)CC2)on1` are -3% and 0.47.
The corresponding values for `FC(F)Cn1cc(NCc2noc3c2COCC3)cn1` are -9% and 1.55.
In the same order, the values of `CCCn1nccc1-c1nccc(OCC)n1` are -14% and 1.36.
With `c1cncc(CN2CCN(c3ncnc4[nH]ncc34)CC2)c1`, the “% Inhibition” value was -11% and the Z score was found to be 0.91.
Turning to `CCO[C@H]1COC[C@@H]1Nc1nnc2ccccn12`, the “% Inhibition” value was -8% and the Z score was found to be 1.63.
In the same order, the values of `Cc1nn(-c2ccc(C#N)cc2)c(NC(=O)CC2CCC(C)C2)c1C` (centres undefined) are 2% and -0.34.
Turning to `c1ccc(CCN2C[C@@H]3CC[C@H]2CN(Cc2cscn2)C3)cc1`, the “% Inhibition” value is on record as 0% and the Z score was found to be 0.04.
The corresponding values for `Cc1cc(C(=O)N2Cc3cccnc3C2)ccc1OC(F)(F)F` are -8% and 0.96.
For `Cc1c([C@H]2CC2(C)C)nc(N)c(C#N)c1-c1ccc(CO)o1`, the “% Inhibition” value is 0% and the Z score amounted to 0.04.
The corresponding values for `O=C([C@H]1C[C@H]2C=C[C@@H]1C2)N(Cc1cccnc1)Cc1ccc2c(c1)OCO2` are 4% and -0.49.
In the same order, the values of `CC(C)c1nnc(CS(=O)(=O)Cc2ccn(-c3ccccc3)n2)o1` are -13% and 1.56.
In the same order, the values of `N#Cc1ccc(OCCOc2cccc(-c3nnco3)c2)cc1` are -11% and 1.44.
In the case of `CCc1ccc(C(=O)N(Cc2ccncc2)Cc2cccnc2)o1`, the “% Inhibition” value is given as -6% and the Z score worked out at 0.92.
In the same order, the values of `CC(C)(C)OC(=O)N1C[C@@H]2C[C@H]1C(=O)NC[C@H]1O[C@H](CCOc3ccccc3C(=O)N2)CC[C@@H]1O` are 25% and -2.86.
The corresponding values for `O=C(NCCc1cnn(-c2ccccc2)c1)c1ccncc1O` are -11% and 1.51.
The corresponding values for `CC(C)=CCN1C(=O)[C@@H]2CC[C@H]1CN(C(=O)c1ccc(C)c(Cl)c1)C2` are -21% and 2.24.
In the case of `CC1(C)Cc2cc(C(=O)N[C@H]3CCOC34CCOCC4)ccc2O1`, the “% Inhibition” value was -10% and the Z score is given as 1.56.
The corresponding values for `CC(C)(C)C1CCN(S(=O)(=O)N[C@@H]2C=C[C@H](CO)C2)CC1` are -3% and 0.28.
In the same order, the values of `Cc1ncsc1C(=O)OCc1ccccc1` are 2% and -0.22.
As for `CC[C@H](O)c1cc2n(n1)CCN(c1ccc(-c3nccn3C)nn1)C2`, the “% Inhibition” value is reported as -13% and the Z score was 2.32.
In the case of `O=C(Nc1ccc(-c2cc[nH]n2)cc1)C1CCC1`, the “% Inhibition” value was -21% and the Z score came out at 1.9.
In the same order, the values of `O=C(NCCN1CCOCC1)C1Cc2cc(C(F)(F)F)ccc2N2CCN(C(=O)c3ccco3)CC12` (centres undefined) are -9% and 1.23.
With `N#Cc1ccc(N2CCN(S(=O)(=O)c3cc(Cl)cnc3N)CC2)cn1`, the “% Inhibition” value was -8% and the Z score came to 1.18.
The corresponding values for `CC1=NO[C@@H](CNC(=O)c2cccc(C)c2)C1` are -1% and 0.12.
Turning to `COC(=O)[C@@]1(C)CCN(C(=O)NCCc2c[nH]c3ccc(F)cc23)C1`, the “% Inhibition” value is -13% and the Z score is on record as 1.81.
Consider `COc1cc(-c2c(C#N)c(N)nc(C)c2-c2ccccc2)cc(OC)c1OC`, for which the “% Inhibition” value came to 0% and the Z score is on record as 0.01.
In the same order, the values of `Cc1cc2c(cc1S(=O)(=O)N1CCC[C@H](C(=O)N3CC(=O)Nc4ccccc43)C1)OCC(=O)N2` are -11% and 2.12.
The corresponding values for `O=C(O)CCc1cc2n(n1)CCN(C[C@@H]1CC=CCC1)C2` are 1% and -0.2.
